Measurements reported in PubChem BioAssay AID504332 (National Center for Advancing Translational Sciences (NCATS), 2011).
The whole screen tested about 350,000 compounds, of which about 31,000 (8.9%) were called active. Inconclusive means that the source gave no clear call. Such entries were picked first, then a sample of the others. Calls follow the shape of the dose curve; as a rule, active = well fitted inhibition curve with a large enough effect; inconclusive = small, poorly fitted or top-dose-only effect; inactive = no such curve, though single readings can be large or run the other way. Potencies of inconclusive entries are doubtful fits and often do not repeat.

What follows are molecules tested against Histone-lysine N-methyltransferase EHMT2 (Homo sapiens) (UniProt Q96KQ7) (assay: qHTS Assay for Inhibitors of Histone Lysine Methyltransferase G9a). Conditions: G9a H3K9 monomethylation, AlphaScreen, 2 h; activity, negative = inhibition: at 59 µM (top of the series) unless noted.
Sequence of UniProt Q96KQ7 (Q96KQ7 whole entry, looked up): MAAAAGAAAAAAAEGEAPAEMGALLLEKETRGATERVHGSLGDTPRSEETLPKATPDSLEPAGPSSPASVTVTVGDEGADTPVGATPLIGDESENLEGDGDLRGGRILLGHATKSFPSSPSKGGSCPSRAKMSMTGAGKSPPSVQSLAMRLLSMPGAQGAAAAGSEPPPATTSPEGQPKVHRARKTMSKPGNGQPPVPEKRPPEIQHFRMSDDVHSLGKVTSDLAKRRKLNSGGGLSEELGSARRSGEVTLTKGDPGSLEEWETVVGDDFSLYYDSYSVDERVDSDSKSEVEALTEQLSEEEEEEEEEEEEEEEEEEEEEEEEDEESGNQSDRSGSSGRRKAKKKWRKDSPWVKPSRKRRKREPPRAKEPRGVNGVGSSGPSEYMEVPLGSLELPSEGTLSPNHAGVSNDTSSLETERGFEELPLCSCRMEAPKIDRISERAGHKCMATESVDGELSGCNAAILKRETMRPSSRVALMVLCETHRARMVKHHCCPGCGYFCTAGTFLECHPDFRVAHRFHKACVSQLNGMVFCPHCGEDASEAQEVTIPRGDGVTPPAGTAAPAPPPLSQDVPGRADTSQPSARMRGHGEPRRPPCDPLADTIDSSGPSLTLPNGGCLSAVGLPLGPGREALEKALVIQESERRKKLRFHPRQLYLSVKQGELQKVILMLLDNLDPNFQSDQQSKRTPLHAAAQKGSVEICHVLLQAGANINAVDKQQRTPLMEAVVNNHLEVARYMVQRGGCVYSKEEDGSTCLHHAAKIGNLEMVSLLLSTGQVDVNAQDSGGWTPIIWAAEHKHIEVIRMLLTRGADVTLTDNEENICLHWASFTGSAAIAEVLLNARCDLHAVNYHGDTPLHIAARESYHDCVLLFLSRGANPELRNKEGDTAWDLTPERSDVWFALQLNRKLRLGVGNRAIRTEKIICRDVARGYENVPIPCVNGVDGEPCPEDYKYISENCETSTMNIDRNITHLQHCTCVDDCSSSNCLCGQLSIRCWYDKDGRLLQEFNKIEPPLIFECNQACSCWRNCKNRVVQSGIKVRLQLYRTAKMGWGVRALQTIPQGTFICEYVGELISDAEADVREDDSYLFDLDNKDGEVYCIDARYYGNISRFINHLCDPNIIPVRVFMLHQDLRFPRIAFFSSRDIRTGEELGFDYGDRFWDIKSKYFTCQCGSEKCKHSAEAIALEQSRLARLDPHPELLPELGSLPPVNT
Summary of the method: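 G9a (20 nM) preincubated 15 min RT with compounds, then 500 nM biotinylated H3K9 peptide and 20 uM SAM added; 2 h RT reaction. Monomethyl-H3K9 product detected by AlphaScreen with anti-H3K9me1 antibody, streptavidin donor and anti-rabbit IgG acceptor beads.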
% is scaled to controls: 0 for no effect and ±100 for the full control effect; potency is read from the fitted curve at half-maximal effect; tags tell the direction and shape of the fitted curve.
Also: nearly all actives have a fitted effect of over 75% in size.

| SMILES | activity, negative = inhibition | Potency |
| --- | --- | --- |
| CCOC(=O)C1=C(N)n2c(s/c(=C\c3ccco3)c2=O)=C(C(=O)OCC)C1c1ccco1 (stereo not given) | inconclusive: -101% [inhibitor] | – |
| CCn1cc(Cl)c(C(=O)N2N=C3/C(=C/c4cccs4)CCCC3C2c2cccs2)n1 (stereo not given) | – | inconclusive: 31.6 µM [inhibitor, partial curve, poor fit] |
| CCOc1ccc(CCNC(=O)COC(=O)/C=C/c2ccc(OC(F)F)c(OC)c2)cc1OCC | – | inconclusive: 79.4 µM [inhibitor, single point] |
| CCn1c(CSc2nc3ccccc3s2)nnc1SCC(=O)c1ccc(O)c(O)c1 | – | active: 0.794 µM |
| Cc1ccc2c(CC(=O)Nc3ccc(S(=O)(=O)Nc4nc(C)cc(C)n4)cc3)coc2c1 | – | inconclusive: 28.2 µM [inhibitor, single point] |
| CC(=O)c1cc2c(cc1NC(=O)CSc1nc3ccccc3o1)OCO2 | – | inconclusive: 31.6 µM [inhibitor, single point] |
| CCOC(=O)C1(C)C=C(Nc2ccc(O)cc2)C(=O)N1c1ccc(O)cc1 (stereo not given) | – | active: 8.91 µM |
| CC1CCCCN1S(=O)(=O)c1cccc2cccnc12 (stereo not given) | – | active: 31.6 µM |
| COc1ccc(C2/C(=C(/O)c3ccccc3)C(=O)C(=O)N2CC(C)O)c(OC)c1 (stereo not given) | – | inconclusive: 79.4 µM [inhibitor, single point] |
| Cc1ccc(NCc2n[nH]c(=S)n2-c2cccc(Cl)c2)cc1 | – | inconclusive: 8.91 µM [inhibitor, partial curve, poor fit] |
| Cc1cc(Nc2ccc(Br)c(C)c2)n2nc(C)nc2n1 | inactive: -8.66% [at 102 µM] | – |
| Cc1cc2oc(C(=O)N(Cc3ccc(N(C)C)cc3)CC3CCCO3)c(C)c2cc1C (stereo not given) | – | active: 14.1 µM |
| CCN(Cc1ccccc1)C(=O)CCc1nc(CN2CCN(C(=O)c3ccc([N+](=O)[O-])cc3)CC2)no1 | – | active: 79.4 µM |
| COc1ccc(C2N(Cc3ccccc3)CC(=O)N2/N=C(\C)c2ccccc2)cc1 (stereo not given) | inactive: -0.356% | – |
| O=C(O)COc1c(-c2ccc(Cl)cc2)oc2ccccc2c1=O | – | inconclusive: 56.2 µM [inhibitor, partial curve, poor fit] |
| COC(=O)[C@@H]1C[C@@]2(O)[C@H](O)[C@H](O)[C@H](O)C[C@H]2N1CC1CC1 | – | inconclusive: 10 µM [inhibitor, single point] |
| CCOc1cc(/C=N/O)ccc1OCc1ccc(F)cc1 | inactive: -4.64% | – |
| N#Cc1ccc(N2CCc3ccccc3C2)c([N+](=O)[O-])c1 | – | inconclusive: 15.8 µM [inhibitor, single point] |
| Cc1sc(NC(=O)c2ccco2)c(CN2CCN(c3ccccn3)CC2)c1C | – | inconclusive: 79.4 µM [inhibitor, partial curve, poor fit] |
| COc1cc(C(=O)O)cc(NC(=O)c2cccs2)c1OC | – | inconclusive: 89.1 µM [inhibitor, single point] |
| CN1C2C=C(N(CCc3c[nH]c4ccccc34)C(=O)c3ccc(Cl)cc3)CC1CC2 (stereo not given) | – | inconclusive: 79.4 µM [inhibitor, single point] |
| O=C(NCCN1CCOCC1)C1CCC(CNS(=O)(=O)c2ccc(Cl)cc2)CC1 (stereo not given) | – | inconclusive: 1.26 µM [inhibitor, full curve, poor fit] |
| COc1ccc(/C=C(\C#N)C(=O)c2c(C)[nH]c3ccccc23)cc1OC | – | inconclusive: 39.8 µM [inhibitor, single point] |
| O=C(CCc1ccccc1)NCC1(c2ccccc2)CCCC1 | – | inconclusive: 1.12 µM [inhibitor, partial curve, poor fit] |

| SMILES | activity, negative = inhibition | Potency |
| --- | --- | --- |
| CC(NC(=O)COC(=O)c1cc([N+](=O)[O-])ccc1N1CCOCC1)c1ccccc1 (stereo not given) | – | inconclusive: 12.6 µM [inhibitor, partial curve] |
| O=C(COc1ccccc1)NCC(c1ccco1)N1CCN(c2ccccc2)CC1 (stereo not given) | – | active: 44.7 µM |
| CC1(CCBr)C(=O)N(c2ccccc2)c2ccccc21 (stereo not given) | inactive: -0.904% [at 0.501 µM] | – |
| O=C(/C=C/c1ccc(OC(F)F)cc1)OCC(=O)N1CCN(C(=O)c2ccco2)CC1 | – | inconclusive: 12.6 µM [inhibitor, single point] |
| CCOC(=O)/C=C/C(=O)Nc1ccc(S(=O)(=O)N2CCc3ccccc32)cc1 | – | inconclusive: 50.1 µM [inhibitor, partial curve, poor fit] |
| O=C(NCCCN1CCCC1=O)c1ccc2c(c1)OCO2 | – | inconclusive: 1.58 µM [inhibitor, partial curve, poor fit] |
| Nc1nonc1-n1nnc(C(=O)N/N=C\c2ccncc2)c1CN1CCCCC1 | – | inconclusive: 10 µM [inhibitor, full curve, poor fit] |
| Cc1ccc(CNC(=O)C2CCCN(c3nc4c(C)cc(C)cc4s3)C2)cc1 (stereo not given) | inactive: -0.525% | – |
| C#Cc1ccc([C@H]2C=C(C(=O)N3CCN(Cc4ccc5c(c4)OCO5)CC3)O[C@@H](OCC)[C@@H]2CCCO)cc1 | inactive: 8.93% [at 12.7 µM] | – |
| O=C(Nc1nc(-c2ccccn2)cs1)c1ccc(F)c(S(=O)(=O)N2CCOCC2)c1 | – | active: 7.08 µM |
| CCN1CCN(c2nc(Nc3ccc(NC(C)=O)cc3)nc(Nc3ccc(NC(C)=O)cc3)n2)CC1 | – | inconclusive: 44.7 µM [inhibitor, partial curve] |
| O=C(COC(=O)c1cccc(S(=O)(=O)N2CCc3ccccc32)c1)NCc1ccco1 | inactive: 1.49% [at 102 µM] | – |
| CCOc1ccc(NC(=O)N(CCCN2CCOCC2)Cc2cccnc2)cc1 | inactive: -0.372% | – |
| Cc1cc(=O)[nH]c(N/N=C/c2c(O)n(-c3ccccc3)c(=O)c3ccccc23)n1 | – | inconclusive: 39.8 µM [inhibitor, single point] |
| CCOc1ccc(C(C)=O)cc1COC(=O)CNC(=O)c1cccs1 | – | inconclusive: 28.2 µM [inhibitor, single point] |
| O=c1c(O)c(-c2ccc3c(c2)OCO3)oc2ccccc12 | – | inconclusive: 7.08 µM [inhibitor, partial curve, poor fit] |
| CCCCn1c(=N)n(CC(=O)C(C)(C)C)c2ccccc21 | – | inconclusive: 89.1 µM [inhibitor, single point] |
| COc1ccc(C(=O)COC(=O)c2ccc(Cl)nc2)cc1OC | – | inconclusive: 79.4 µM [inhibitor, partial curve, poor fit] |
| Cc1ccc(S(=O)(=O)Oc2ccc(C(c3c(C)[nH][nH]c3=O)c3c(C)[nH][nH]c3=O)cc2)cc1 | inactive: -72.1% [at 102 µM] | – |
| Cc1c(Cl)cccc1NC(=O)CCC(=O)N/N=C/c1ccc[nH]1 | – | active: 17.8 µM |
| C=CCn1c(SCn2nnc3ccccc3c2=O)nnc1-c1ccc(Br)cc1 | inconclusive: -60.1% [inhibitor] | – |
| COc1cc([N+](=O)[O-])ccc1NC(=S)NNC(=O)c1ccc2c(c1)OCO2 | – | active: 8.91 µM |
| O=C(Nc1nccs1)C1CC(=O)N(CCc2ccc(F)cc2)C1 (stereo not given) | – | inconclusive: 89.1 µM [inhibitor, single point] |
| COc1ccc(CCC(=O)N2CCCSC2=Nc2ccc(C(C)=O)cc2)cc1 | – | inconclusive: 12.6 µM [inhibitor, partial curve, poor fit] |

| SMILES | activity, negative = inhibition | Potency |
| --- | --- | --- |
| c1ccc(-c2noc(-c3ccncc3)n2)nc1 | inactive: -8.74% | – |
| COc1cccc(C(=O)NCCS(=O)(=O)NCCc2ccccc2)c1 | – | active: 44.7 µM |
| COc1ccc(-n2c(O)c(C=NC3CC3)c(=O)[nH]c2=O)cc1 | – | inconclusive: 39.8 µM [inhibitor, single point] |
| COc1ccc(CCC(=O)Nc2nc(-c3ccncc3)cs2)cc1 | – | active: 8.91 µM |
| Cc1ccc(N2C(=O)CC(Sc3ncn[nH]3)C2=O)cc1C (stereo not given) | – | active: 2 µM |
| Cc1c(OC(C)C(=O)NCC2CCC(C(=O)O)CC2)ccc2c3c(c(=O)oc12)CCCC3 (stereo not given) | inactive: -8.78% [at 102 µM] | – |
| CCN(CC)c1ccc(S(=O)(=O)N2CCOCC2)cc1NC(=O)Cn1nc(C)c([N+](=O)[O-])c1C | – | inconclusive: 6.31 µM [inhibitor, single point] |
| Cc1noc(C)c1-c1ccc2ncnc(NCCN3CCOCC3)c2c1 | inactive: -40.6% [at 0.501 µM] | – |
| COc1cc(NC(=O)c2csc3c2CCCC3)ncn1 | – | inconclusive: 70.8 µM [inhibitor, partial curve] |
| C/C=C(\C)CN1CCN(c2cc(C)ccc2C)CC1 | – | active: 1.26 µM |
| COc1ccc(Br)cc1CNC(=O)Cc1c(C(=O)O)[nH]c2ccc(Cl)cc12 | – | inconclusive: 89.1 µM [inhibitor, partial curve, poor fit] |
| CCCC(=O)Nc1sc2c(c1C(=O)OC)C(C(=O)OC)CC2 (stereo not given) | inactive: -2.98% | – |
| CCOc1ccc(OCC(=O)NCCS(=O)(=O)N2CCN(c3ccc(OC)cc3)CC2)cc1 | inactive: -4.19% | – |
| N#CCN1C(=O)C2CCCN2c2ccc(S(=O)(=O)N3CCOCC3)cc21 (stereo not given) | – | active: 20 µM |
| CC1CN=C(c2cccn2Cc2ccc(F)cc2Cl)O1 (stereo not given) | inconclusive: -52.5% [inhibitor] | – |
| CC1CN(C(=O)c2cc(-c3ccc(Cl)s3)nc3ccccc23)CC(C)O1 (stereo not given) | inactive: 9.94% [at 102 µM] | – |
| Cc1ccc(NC(=S)N2CCN(C)CC2)c(C)c1 | inactive: 4.95% | – |
| O=C(Nc1cccc(C(=O)O)c1)/C(=C\c1ccc2c(c1)OCO2)NC(=O)c1ccc(Br)cc1 | inactive: -3.7% [at 102 µM] | – |
| COCCOC(=O)/C(C#N)=C/c1cn(Cc2ccccc2)nc1-c1cccnc1 | – | inconclusive: 63.1 µM [inhibitor, single point] |
| Cc1cc(C)cc(NC(=O)c2ccccc2CC[N+](=O)[O-])c1 | inactive: 10.4% | – |
| CCCCC(c1nnnn1C(C)C)N1CCN(C(=O)c2ccco2)CC1 (stereo not given) | – | active: 50.1 µM |
| COc1ccc(S(=O)(=O)n2cnc3ccccc32)c(C)c1 | inactive: 9.88% [at 102 µM] | – |
